We go through 68 variants from the RNAGym collection of RNA variant scans (doi:10.1093/nar/gkz1192).

The source gives no read counts; variants with many changes may rest on few reads.

B1: CPEB3 Ribozyme (parent)
chain: UAACAGGGGGCCACAGCAGAAGCGUUCACGUCGCAGCCCCUGUCAGAUUCUGGUGAAUCUGCGAAUUCUGCUGUAUAUCUC

In the data set the parent is B1. Description: self-cleavage, relative activity (ratio to wild type); higher = more cleavage; in vitro, sequencing. In a few lines: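 For each CPEB3 ribozyme variant, relative activity is its cleaved/total read fraction divided by the unmutated ribozyme's. Barcoded error-prone PCR libraries were transcribed by T7 RNA polymerase (5 hours, 37°C) and held in DNase I for 15 min before an EDTA stop, with cleavage occurring throughout. Template-switching reverse transcription and Illumina sequencing were used to read the RNAs. A 5-read minimum applied, and results are the mean of three batches.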
Take UAACAGGGGGCCGCAGCAGAAGCGCUCGCGCCGCAGCCCCUGUCAGAUUCUGGUGAAUCUGCGGAUUCUGCUGAAUAUCUC: the self-cleavage came to 0.14.

With UAACAGGGGGCCGCAGCAGAAGCGCUCACGUCGCAGCCCCCGUCAGAUUCUGGUGAAUCUGCGAAUUCUGCUGUAUUCCUC, the self-cleavage worked out at 0.25.

Consider UAACAGGGGGCCGCAGCAGAAGCGUUCACGUCGCAGCCCCUAUUAGAUUCUGGUGAAUCUGCGAAUUCUGCUGUAUAUCUC, for which the self-cleavage worked out at 0.26.

For the variant UAACAGGGGGCCGCAGCAGAAGCGUCCACGUCGCUGCCCCUGUCAGAUUCUGGUGAAUCUGCGAAUUCAGCCGUAUAUCUC, the self-cleavage turned out to be 0.2.

Turning to UAACAGGGGGCCGCAACGGAAGCGCUCACGUCGCAGCCCCUGUCAGAUUCUGGUGAAUCUGCUAAUUCUUCUGUAUAUCUC, the self-cleavage came to 0.23.

As for UAACAGGGGGCCGCAACAGAAGCGUUCACGUCGCAGCCCCUGUCAGAUUCUGGAGAAUCUGCGAAUUCUGCCGUAUAUCUC, the self-cleavage turned out to be 0.34.

Take UAACAGGGGGCCGCAGCAGAAGCGUUCACGUCGCAGCCCAUGUCAGAUUCUGGUGUAUCUGCGAGUUCUGCUGUAUAUCUC: the self-cleavage was 0.09.

With UAACAGGGGGCCGCAGCAGAAGCGUUCACGUCGCAGCCCCUGUCAGAUUCUGGUGAAUCUGGGAUUUCUGCUGUAUAUCUC, the self-cleavage worked out at 0.11.

Consider UAACAGGGGGCCGCAGCAGAAGCGCUCACGUCGCAGCCCCUGUCAGGUUCUGGCGAAUCUACGAAUUCCGCUGCAUAUCUC, for which the self-cleavage worked out at 0.37.

For UAACAGGGGGCCGCAGCAGAAGCGUUCACGUCGCAGCCCCUGUCAGAUUCUGAUGAAUCUGCGAAUCCUGCUGUAUACCUC, the self-cleavage worked out at 0.18.

As to UAACAGGGGGCCGCAGCAGAAGCGCUCACGUCGCAGCCCCUGUCAGAAUCUGGUGAAUCUGCGAAUUCCGCUGUACAUCUC, the self-cleavage was determined as 0.06.

Take UAACAGGGGGCCGCAGCAGAAGCGCUCACGUCGCGGCCCCUGCCAGAUUCUGGUGAAUCCGCGAAUUCUGCUGUAUAUCUC: the self-cleavage is 0.15.

In the case of UAACAGGGGGCCGCAGCAGAAGCGUUCACGUCGCAGCCCUUGCCAGAUUCCGGUGAGUCUGCGAAUUCUGCUGUAUAUCUC, the self-cleavage amounted to 0.32.

Regarding UAACAGGGGGCCGCAGCAGAAGCGUCCACGUCGCGGCCCCUGUCAGAUUCUGGUGAGUCUGCGAAUCCUGCUGUAUAUCUC, the self-cleavage came out at 0.1.

Take UAACAGGGGGCCGCAGCAGAAGCGUUCACGUCGCAGCCCCUGUGAGAAACUGGUGAAUCUGUGAAUUCGGCUGUAUGUCUC: the self-cleavage was determined as 0.03.

With UAACAGGGGGCCGCAGCAGAAGCGCUCACGCCGCAGCCCCUGUCAGGUUCUGGUGAAUCUGCGAAUUCUGCUGUUUAUCUC, the self-cleavage stood at 0.16.

Take UAACAGGGGGCCGCAGCAGAAGCGCUCACGUCGCAGCCCCUGUCAGGUUCUGGUGAAUCUGCGAAUUCUGCUGUAAAUCUC: the self-cleavage is 0.39.

Consider UAACAGGGGGCCGCAGCAGAAGCGUCCGCGUCGCAGCCCCUGUCAGAUUCUGGUGAAUCUGCGAAUUCUGCUGUUUAUCUC, for which the self-cleavage was found to be 0.22.

As to UAACAGGGGGCCGCAGCAGAAGCGUUCACGUCGCAGCCCCUCUCAGAUUCUGGUGAAUCCGCGAAUUCUGCUGUAUAUCUC, the self-cleavage came out at 0.17.

As to UAACAGGGGGCCGCAUCAGAAGCGUUCGCGUCGCAGCCCCUGUCAGAUUCUGGUGAAUCUACGAAUUCUGCUGUAUAUCUC, the self-cleavage was found to be 0.08.

Regarding UAACAGGGGGCCGCAGCAGAAGCGUUCACGUCUCAGCCCCUGUCUGAUUCUGGUGAAUCUGCGAAUUCUGCUGUAUAUCUC, the self-cleavage was determined as 0.26.

Regarding UAACAGGGGGCCGCAGCAGAAGCGAUCACGUCGCAGUCCCUGUCGGAUUCUGGUGAACCUGCGAAUUCUGCUGUAUAUCUC, the self-cleavage was found to be 0.04.

Regarding UAACAGGGGGCCGCAGCAGAAGCGCACACGUCGCAGCCCCUGUCAGAUUCUGGUGAAUCCGCGAAUUCUGCUGUAUAUCUC, the self-cleavage came to 0.32.

As for UAACAGGGGGCCGCAGCAGAAGCAUUCACGUCGCAGCCCCUGUCAGAUCCUGGUGAAUCUGCGAAUUCUGCUGUAUAUCUC, the self-cleavage worked out at 0.18.

Regarding UAACAGGGGGCCGCAGCAGAAGCGUUCACAUCGCAGCCCCUGUCAGAUUCUGGCGAAUCUGCGAACUCCGCCGUAAAUCUC, the self-cleavage was 0.13.

For UAACAGGGGGCCGCAGCAGAAGCGUCCACGUCGCAGCCCCUGUCAGAUUCUGGUGGAUCUGCGAAUUCUGCUGUAUAUCUC, the self-cleavage stood at 0.16.

Consider UAACAGGGGGCCGCAGCAGAAGCGUACACGUCGCAGCCCCUGUCAGAUUCUGGUGAAUCUGCGAUUUCUGCUGUAUAUCCC, for which the self-cleavage worked out at 0.29.

UAACAGGGGGCCGCAGCAGAAGCGCUCACGCCGCAGCCCCUGUCAGAUUCUGGUGAAUCUGCGGAUUCUGCUGAAUAUCUC: the self-cleavage came to 0.21.

UAACAGGGGGCCGCAGCAAAGGCGUUCACGUCGCAGCCCCUGUCGGAUUCUGGUGAAUCUGCGAAUUCUGCUGUAUAUCUC: the self-cleavage stood at 0.11.

Consider UAACAGGGGGCCGCAGCAGAAGCGUUCACGUCGCAGCCCCUAUCAGAUUCUGGUGAAUCUGCGAAUUCUGCUGUAAAUCUC, for which the self-cleavage is 0.16.

With UAACAGGGGGCCGCAGCAGAAGCGUUCACUUCGCAGCCCCUGUCAGAUUCUGAUGAAUCCGCGAACUCAGCAGUAUAUCUC, the self-cleavage was 0.07.

Regarding UAACAGGGGGCCGCAGCAGAAGCGAUCACGUCGCAGCCCCAGUCAGAUACGGGUGAAUCUGCUAAUUCUGCUGUAUAUCUC, the self-cleavage was 0.23.

Regarding UAACAGGGGGCCGCAGCAGAAGCGUACACGUCGCAGCCCCUGUCAGAUUCUGGUGGAUCUGCGAAUUCUGCGGUAUAUCUC, the self-cleavage was determined as 0.41.

Regarding UAACAGGGGGCCGCAACAGAAGCGUUCACGUCGCAGCCCCUGUCGGAUUCUGGUGGAUCUGCGAAUUCUGCUGUAUAUCAC, the self-cleavage was found to be 0.09.

Consider UAACAGGGGGCCGCAGCAGAACCGUUCACGUCGCAGCCCCUGUCAGAUUCUGGUGAAUCUGCGAAUUCUGCUCUAUAUCUC, for which the self-cleavage is 0.1.

Take UAACAGGGGGCCGCAGCAGAAGCGCUCACGCCGCAGCCCCUGACAGAUUCUGGUGAAUCUGCGAAUUCUGCUAUAUGUCUC: the self-cleavage was found to be 0.06.

Turning to UAACAGGGGGCCGCAGCAGAAGCGUACACGUCGCAGCCCCCGUCAGAUCCUGGUGAAUCUGCGAAUUCUGCUGUACAUCUC, the self-cleavage is 0.04.

For the variant UAACAGGGGGCCGCAGCAGAAGCGUACACGUCGCAUCCCCUGUCAGUUUCUGGUGAAUCUGCGAAUUCUGCUGUAUAUCUC, the self-cleavage worked out at 0.06.

Turning to UAACAGGGGGCCGCAGCAGAAGCGCCCACGUCGCAGCCCCUGUCGGAUUCUGGUGAAUCUGCGAAUUCUGCUGCAUAUCUC, the self-cleavage was found to be 0.41.

UAACAGGGGGCCGCAGCAGAAGCGGUCACCUCGCAGCCCCUGUCAGAUUCUGGUGAAUCUGCGAAUUCUGCUGUACGUCUC: the self-cleavage amounted to 0.09.

In the case of UAACAGGGGGCCGCAGCACAAGCGUUCACGUCGCAGCCCCUGACUGAUUCUGGUGAAUCUGCGAAUUCUGCUGUAUAUCUC, the self-cleavage came out at 0.08.

As for UAACAGGGGGCCGCAGCAGAAGCGCUCACGUCGCGGCCCCUGUCAGAUUCCGGUGAAUCUGCGAAUUCUGCUGUAUAUCUC, the self-cleavage turned out to be 0.37.

Consider UAACAGGGGGCCGCAGCAGAAGCGUUCACGUCGCAACCCCUGUCAGAUUCUGGUGAAUCAGCGAAUUCUGCUGUAUAUCUC, for which the self-cleavage came out at 0.09.

With UAACAGGGGGCCGCAGCAGAAGCGGUCUCGUCGCAGCCCCUGUCAGAUUCUGGUGAAUCUGCGAAUUCUGCUGUAUAUCUC, the self-cleavage came to 0.17.

Consider UAACAGGGGGCCGCACCAUAAGCGUUCACGUCGCAGCCCCUGUCAGAUUCUGGUGAAUCUGCGAAUUCUGCUGUAUAUCUC, for which the self-cleavage was determined as 0.34.

As to UAACAGGGGGCCGCAGCAGAAGCGUUCACGUCGCAGCCCAUGUCAGAUUCUGGUGAACCUGCGAAUCCUGCUAUAUAUCUC, the self-cleavage was determined as 0.21.

Consider UAACAGGGGGCCGCAGCAGAAGCGCUCACGUCGCAGCCCCCGUCAGAUCCUGGUGAAUCUGCGAACUCUGCUGUAUAUCUC, for which the self-cleavage is 0.1.

Take UAACAGGGGGCCGCAGCAGAAGCGAUCACGUCGCAGCCCCUGUCAGAUUCUGGUGAAUCCGCGAAUUCUGCUGUAUAUCUC: the self-cleavage turned out to be 0.15.

With UAACAGGGGGCCGCAGCAGAAGCGUACACGUCGCAGCCCCAGACAGAUUCUGGUGAAUCUGCGAAUUCUGCUGUAUAUCUC, the self-cleavage worked out at 0.1.

Regarding UAACAGGGGGCCGCAGCAGAAGCGCUCACGUCGCAGCCCCCGUCAGAUUCUGGUGAAACUGCGAAUUCUGCUGUAUAUCUC, the self-cleavage worked out at 0.08.

For the variant UAACAGGGGGCCGCAGCAGAAGCGUUCACAUCGCAGCCCCUGUCAGAUUCUGGUGAAUCUGCGAAUUCCGCUGUAUAUCUC, the self-cleavage came to 0.15.

In the case of UAACAGGGGGCCGCAGCAGAAGCGUUCACAUCGCAGCCCCUGUCAGAUUCUGGUGAGUCUGCGAAUUCUGCUGUAUAUCUC, the self-cleavage came to 0.2.

Take UAACAGGGGGCCGCAGCAGAAGCGUUCACGUCGCAGCCUCUGCCAGAUUCUGGUGAAUCCGCGAAUUCAGCUGUAUAACUC: the self-cleavage turned out to be 0.06.

On to UAACAGGGGGCCGCAGCAGAAGCGUUCACGUCGCAGCCCCUGUCAGAUUCUGGUGAAUCUGCAAAUUCUGCUGUGUAUCUC, for which the self-cleavage was found to be 0.69.

Consider UAACAGGGGGCCGCAGCAGAAGCGUUCACGUCGCAGCCCAUGUCGGAUUCUGGUGAAUCUGCGAAUUCUGCCGUAUAUCUC, for which the self-cleavage came out at 0.

For UAACAGGGGGCCGCAGCAGAAGCGUUCACGUCGCAGCCCCUGUAAGAUUCUGGUGAAUCUGCGAAUUCUGCUGUAUAUCCC, the self-cleavage worked out at 0.46.

For UAACAGGGGGCCGCAGCAGAAGCGCUCACGUCGUAGCCCCUGUCAGAUUCUGGCGAAUCUGCGAAUUCUGCUGUAUAUCUC, the self-cleavage came to 0.1.

For the variant UAACAGGGGGCCGCAGCAGAAGCGUUCACGUCGCAGCCCCUGUCAGAUUUUGGUGAAUCUGCGAAUCCUGCUGUAUAUCUC, the self-cleavage came out at 0.1.

With UAACAGGGGGCCGCAGCAGAAGCGCUCACGUCGCAGCCCCUGUCAGAUUUCGGCGGAUCUGCGAAUUCUGCUGUAUAUCUC, the self-cleavage came out at 0.04.

With UAACAGGGGGCCGCAGCAGAAGCGUUCACGUCCCAGCCCCUGUCAGGUCCUGGUGAAUCUGCGAAUUCUGCUGUAUAUCUC, the self-cleavage turned out to be 0.14.

UAACAGGGGGCCGCAGCAGAAGCGUACACGUCGCAGCCCCUGUCAGAUUCUGGUGAAUCUCCGAAUUCUGCUGUAUAUCUC: the self-cleavage worked out at 0.16.

On to UAACAGGGGGCCGCAGCAGAAGCGCUCACGUCGCAGUCCCUGUCAGAUUCUGGUUAAUCUGCGAACUCUGCUGUAUACCUC, for which the self-cleavage was 0.05.

UAACAGGGGGCCGCAGCAGAAGCGUUCACGUCGCAGCCACUGUCAGAUUCUGGUGAAUCUGCGAAUUCUGCUGUAUUUCUC: the self-cleavage came out at 0.12.

As for UAACAGGGGGCCGCAGCAGAAGCGCUCACGUCGCAGCCCCUGUCAGUUUCUGGUGAAUCUGCGAAUUCAGCUGUAUAUCUC, the self-cleavage came out at 0.13.

Consider UAACAGGGGGCCGCAGCAGAAGCGUUCACGUCGCAGCCUCCGUCUGAUUCUGGUGAAUCUGCGAAUUCUGCUGUAUAUCUC, for which the self-cleavage was determined as 0.33.

Regarding UAACAGGGGGCCGCAGCAGAAGCGUUCACGUCGCAGCCCCUGUCAGAUUCUUGUGAGUCUGCGAAUUCUGCUGUAUAUCAC, the self-cleavage was 0.89.

Regarding UAACAGGGGGCCGCAGCAGAAGCGCCCACGUCGCAGCCCCUGUCAGAUUCUGGUGAAUCUGUGAAUUCUGCUGUAUAUCUC, the self-cleavage amounted to 0.07.

Turning to UAACAGGGGGCCGCAGCAGAAGCGCUCACGUCGCCGCCCCCGUCAGAUUCUGGUGAAUCUGCGAAUCCUGCUGUAUAUCUC, the self-cleavage came to 0.48.
